Sequences with one replicate were seen in a single cluster, so their values are uncertain.
Tested on: ATP
Experiment: switch fluorescence ratio, 500 uM ATP over buffer (Cy3 cluster intensity, sum of 5 cycles each) (fold (ratio)); higher = stronger signal-on switching upon ATP binding; sequences stand for … in TCGTCGGCAGCGTCAGATGTGTATAAGAGACAGTTTTTTTTTTTTTTTTTTTTTTTTT…TC
Conditions: aptamer strand: ATP DNA aptamer (quencher-CACCTGGGGGAGTATTGCGGAGGAAGG + anchor), 100 nM annealed; ATP concentration: 500 uM; one replicate
Outline: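 The fluorescence ratio divides summed target-cycle Cy3 intensity by summed buffer-cycle Cy3 intensity for each cluster and is averaged per switch-domain sequence. Cy3-labelled switching-strand clusters on a modified Illumina MiSeq flow-cell were annealed to 100 nM quencher-labelled ATP aptamer, then imaged in selection buffer and again after 15 min with 500 uM ATP at 22 °C. Five such cycles were run, with NaOH stripping and re-annealing between them, and clusters outside 100-1000 RFU were excluded.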
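Also: ATP exposure 15 min at 22 °C before imaging.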

Sequence | switch fluorescence ratio
AACGTGGCTC | 0.975
TGCCAGTTGG | 1.03
AATAGAGGCT | 0.984
GCATGGGACA | 1.01
TCATCCCCGT | 1.16
GCGAGAACTC | 1.06
AAAAGACTTT | 1.02
TTTACTTAAT | 1.06
GTGGCGAATC | 0.984
GGTAGCCTTG | 1.03
TTTAGGGCTC | 1.01
TCGTCGCCCG | 1.02
ACTGTAAGTA | 1.01
AGGATAAGCG | 1.01
ACATGTACCT | 1.33
TGGCACATAC | 4.2
GTGTACTATG | 1.03
GGTCGTCCAA | 1.02
CTGGTTTTAA | 1.05
GGTGGTCCCA | 0.949
GTGCTACCTT | 1.02
GAGTGTGCCA | 1.03
TGCCGGCTTT | 1.03

Sequence | switch fluorescence ratio
ATTTTTCCA | 1.03
TTTCGAGATG | 1.03
CACCAGGTGG | 3.04
GCTGTGTTCT | 0.979
GTGTAAGAGC | 0.974
TTGGGGCGTA | 0.958
GATTTCCTAG | 0.951
ACCGTGCTGG | 1.01
ATTGACACGG | 1.19
GGCATGGGGA | 0.988
CATTATTGTC | 0.975
AACATTACCA | 1.15
GAAATTTGAC | 0.956
GTATGAGCT | 0.976
TGTTATTGA | 0.968
CCTCTTGTAA | 5.76
CTGGAAGACG | 1.01
CCATCCCGGG | 1.12
TGGGAGTTGC | 1.04
GCGCGCCGTG | 0.999
AGGAAGTAT | 1
CCCTTTGATT | 1.01
TTAAGCAGCG | 1.04

Sequence | switch fluorescence ratio
TGAGCAAGGA | 1.21
TACGCAGGCC | 1.7
TTAAGGATCG | 0.972
ACTAAATCGT | 1.02
CCAAAGAGCC | 1.07
TCCGGGAAGG | 1.01
TTGTATGACT | 1.33
GGATGCTGG | 0.943
CTAGAACGGG | 1.01
GTCTCACTTG | 1.01
CGTTGCATG | 0.897
GCAATAGGGA | 1.43
GATTGACAGC | 1.11
CGGAGAGGGG | 0.983
GCGTTGTGTA | 1.02
ATGTGAGTGG | 0.97
TGCCGAAATG | 1.04
TACAAGAACA | 1.03
GTGAAGGGGG | 0.969
GGCACAATTT | 0.958
ATGATATCAC | 0.978
TCGACACGGG | 1.05
ATAGGAATAT | 0.996

Sequence | switch fluorescence ratio
ACGATTAGA | 1.02
ATTATAATTA | 1.03
ACCAGACGAG | 1.02
GGAAAATGCC | 1.08
TAACAGGCTG | 0.98
ATTAAGAGTC | 0.97
AAATGGCATA | 0.986
GCGAAGAGGA | 0.966
CATGTCCACC | 1.04
TTAGTGAAAG | 1.01
AGGTAGGTAT | 0.985
CGTGAGAGGT | 0.956
ACCGGCAATG | 1.26
GGCCCGGTAC | 1.66
GGCTACGCA | 1.25
ACATTACGAT | 1.35
CCAGAGAGGG | 0.991
ATCCAGAGGT | 1.04
GTACGTGCGG | 0.985
GATTCGGTAG | 0.971
TTTTTACAAA | 1.26
CCGATGGGGC | 1.1
ATGTAATGCT | 1.06

Sequence | switch fluorescence ratio
GGATGATGTG | 0.994
CGACTCATT | 1.14
ATTGCCTTGT | 1.02
GTACGTGACG | 1.08
ACGCCATCGA | 1.11
ATTGTAGCTT | 1.05
TACATCTAGC | 1.06
ACACCCTATT | 1.08
ATGAAACCAG | 1.03
CGGGGTCGCT | 0.926
AGGCTATACG | 1.08
GTTGGCGAGC | 1
TTAGATGAGA | 0.975
TCACCCTTGC | 1.43
GTATGTTGTG | 0.981
TCTAAAATC | 1.06
GAACCCTCTT | 1.08
CTTGGGTGCT | 1
TTGAAATGAT | 1.02
CTGTTGGGTA | 0.986
CCGGGACTCG | 1.02
TCAATAGAAG | 0.97
ACAGTAGAGG | 1.09

Sequence | switch fluorescence ratio
CAATTTAGCC | 0.973
GATAATGGTG | 1
GACTTGTGAT | 0.973
ATCCAACTT | 1.05
TGATGTTTA | 0.929
TTGGACGACT | 1.01
ACAGATAGTT | 1.03
AGCGTAA | 1.06
CGCGGGAAAT | 1.03
GGATGCTAGC | 1.04
TCCATTAGGG | 1.02
ATGGGGAA | 0.985
CGAATCCTTT | 0.999
GGAGGTTGC | 0.962
AGTCTGCCAG | 0.991
CTCGCTTCCG | 1.05
TGATGTTGTT | 0.981
TGCTCACCAC | 1.13
GTGGTGACAG | 0.996
CTGTGGCGGG | 0.946
ATACCAGGCT | 1.05
TCCTAATAAT | 1.01
TTCCTAGAC | 2.5

Sequence | switch fluorescence ratio
TCGGGAGACG | 0.981
TTACCCTCCT | 1.17
TAGTTAAAGG | 1.01
TCTCGTTAGA | 1
TCGCGAACCG | 1.01
ACTGACAAAT | 1.24
AGAATCCGCA | 3.26
TCCGGCGGGG | 0.915
CCCAGACGGT | 1.05
CTCTCGAAGG | 0.977
GTGCTCTTTC | 0.99
TCGAATGAAT | 1.01
CTTTGTTGAG | 1
GCGTTACGCA | 0.987
TGCTTCGATA | 0.994
TGGAAGATTC | 1.05
AAGGGTGTAT | 1.02
TTGACCCGTC | 1.01
CAAACGAGGA | 1.02

— the supplement of paper PMC10126150
